Some of the results follow. These are noisy estimates, calculated here from bound and input reads.

The assay deals with T1, Pho4 (S. cerevisiae) (UniProt P07270).
T1 sequence: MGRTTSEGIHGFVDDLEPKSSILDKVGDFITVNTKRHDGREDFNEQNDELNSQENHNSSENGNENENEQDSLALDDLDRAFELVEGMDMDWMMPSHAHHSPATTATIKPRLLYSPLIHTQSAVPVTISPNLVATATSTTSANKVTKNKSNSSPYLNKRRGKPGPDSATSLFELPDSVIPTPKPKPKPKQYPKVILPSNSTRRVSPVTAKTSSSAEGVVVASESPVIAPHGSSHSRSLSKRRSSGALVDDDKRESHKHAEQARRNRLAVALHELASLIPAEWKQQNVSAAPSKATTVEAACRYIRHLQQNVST
In words: relative binding free energy (BET-seq); higher = weaker binding. As to conditions: reference: library average.
For the sequence TTAATCACGTGGGAGA, the “relative binding free energy” value was -0.12 kcal/mol.

Take TTACGCACGTGTATGT: the “relative binding free energy” value is -0.16 kcal/mol.

With AGTAGCACGTGGAGTG, the “relative binding free energy” value was -0.16 kcal/mol.

ATATGCACGTGGCTGT: the “relative binding free energy” value is -0.16 kcal/mol.

Turning to GGTTGCACGTGGAGGT, the “relative binding free energy” value amounted to 0.15 kcal/mol.

As to GGGGCCACGTGCGATT, the “relative binding free energy” value is -0.01 kcal/mol.

Take AGGCGCACGTGATGGC: the “relative binding free energy” value was determined as 0.04 kcal/mol.

GTGTGCACGTGTTGCG: the “relative binding free energy” value is 0.17 kcal/mol.

Regarding GTGGGCACGTGGGACC, the “relative binding free energy” value was -0.14 kcal/mol.

For GCGGGCACGTGGTGAT, the “relative binding free energy” value is -0.21 kcal/mol.

As to GTTATCACGTGTGACT, the “relative binding free energy” value worked out at 0.21 kcal/mol.

Regarding TTCAGCACGTGTAAGG, the “relative binding free energy” value is -0.02 kcal/mol.

As for GGTCCCACGTGGGGCG, the “relative binding free energy” value is -0.12 kcal/mol.

As to GTGGCCACGTGACGGA, the “relative binding free energy” value stood at 0.2 kcal/mol.

Turning to AGGGACACGTGTCTGG, the “relative binding free energy” value is 0.01 kcal/mol.

For ACAGTCACGTGGGTGG, the “relative binding free energy” value is -0.05 kcal/mol.

Regarding GGGGACACGTGCAGTG, the “relative binding free energy” value was -0.08 kcal/mol.

Regarding TAGCTCACGTGTGGTA, the “relative binding free energy” value was found to be 0.21 kcal/mol.

In the case of TCAGGCACGTGTGTGG, the “relative binding free energy” value is -0.03 kcal/mol.

As to TGCTACACGTGAATGG, the “relative binding free energy” value is 0.48 kcal/mol.

With ATGTTCACGTGTAGAA, the “relative binding free energy” value turned out to be 0.03 kcal/mol.

For the sequence GGTTGCACGTGGCATG, the “relative binding free energy” value is -0.17 kcal/mol.

In the case of TATTGCACGTGTAAGA, the “relative binding free energy” value was 0 kcal/mol.

Take TGGTACACGTGGGGAA: the “relative binding free energy” value came out at 0.06 kcal/mol.

With ACTTGCACGTGTGTAG, the “relative binding free energy” value is -0.02 kcal/mol.

For GGGGCCACGTGCGGGG, the “relative binding free energy” value was -0.26 kcal/mol.

Turning to TGGTTCACGTGTGGGG, the “relative binding free energy” value was found to be 0.33 kcal/mol.

TATCTCACGTGGTTAT: the “relative binding free energy” value was 0.29 kcal/mol.

For the sequence TTGAACACGTGTAGCG, the “relative binding free energy” value stood at 0.25 kcal/mol.

Regarding ATCTACACGTGAGTTG, the “relative binding free energy” value amounted to 0.22 kcal/mol.

For TGCAGCACGTGGGGGA, the “relative binding free energy” value is -0.26 kcal/mol.

Regarding TTATCCACGTGGTTGT, the “relative binding free energy” value was -0.06 kcal/mol.

Turning to TGGTTCACGTGTGAGA, the “relative binding free energy” value was 0.45 kcal/mol.

Regarding GGCGTCACGTGAAATT, the “relative binding free energy” value worked out at 0.46 kcal/mol.

As to GAGTGCACGTGCATTG, the “relative binding free energy” value was determined as 0.06 kcal/mol.

For CCTTTCACGTGTTTGG, the “relative binding free energy” value came to 0.24 kcal/mol.

In the case of GCAGGCACGTGTTGTA, the “relative binding free energy” value stood at 0.01 kcal/mol.

With AGGGTCACGTGACTCG, the “relative binding free energy” value was 0.34 kcal/mol.

For GGTCTCACGTGGTGCA, the “relative binding free energy” value was found to be 0.17 kcal/mol.

Turning to TGGGCCACGTGAGGGT, the “relative binding free energy” value was 0.13 kcal/mol.

With TATGGCACGTGTGTCA, the “relative binding free energy” value was -0.05 kcal/mol.

Regarding AGGGTCACGTGTTGCT, the “relative binding free energy” value was 0.17 kcal/mol.

TGCATCACGTGAGGGA: the “relative binding free energy” value is 0.32 kcal/mol.

For CGGTTCACGTGGTGTG, the “relative binding free energy” value is 0.22 kcal/mol.

On to TTTATCACGTGGACAG, for which the “relative binding free energy” value stood at 0.07 kcal/mol.

TATGTCACGTGGATCG: the “relative binding free energy” value was -0.02 kcal/mol.

In the case of GTATTCACGTGAAGCG, the “relative binding free energy” value was determined as 0.44 kcal/mol.

As to CAGGGCACGTGTTTTA, the “relative binding free energy” value is -0.12 kcal/mol.

With TCGTACACGTGGTTGG, the “relative binding free energy” value is -0.09 kcal/mol.

Regarding ATGAACACGTGTGTGG, the “relative binding free energy” value turned out to be 0.08 kcal/mol.

In the case of TCTAGCACGTGGTTTG, the “relative binding free energy” value was -0.15 kcal/mol.

With TTTAACACGTGTTTGA, the “relative binding free energy” value is -0.04 kcal/mol.

For the sequence GTGTGCACGTGTGCAA, the “relative binding free energy” value was 0 kcal/mol.

For TGCGTCACGTGCAGGG, the “relative binding free energy” value is -0.18 kcal/mol.

With GGTTGCACGTGCGGAT, the “relative binding free energy” value was -0.03 kcal/mol.

Regarding ATTATCACGTGATTAT, the “relative binding free energy” value stood at 0.08 kcal/mol.

In the case of GGCGCCACGTGGGGCG, the “relative binding free energy” value is -0.19 kcal/mol.

As for CAATGCACGTGATAGG, the “relative binding free energy” value amounted to 0.14 kcal/mol.

Take TTGGGCACGTGAGCCT: the “relative binding free energy” value came to 0.23 kcal/mol.

In the case of CGTTTCACGTGAGGCG, the “relative binding free energy” value turned out to be 0.26 kcal/mol.

Take TCTGACACGTGAGGGT: the “relative binding free energy” value was found to be 0.25 kcal/mol.

Regarding TATTGCACGTGTGAGA, the “relative binding free energy” value stood at 0.09 kcal/mol.

With TGTACCACGTGAGGGA, the “relative binding free energy” value amounted to 0.11 kcal/mol.

As to GGAGACACGTGATGTG, the “relative binding free energy” value came out at 0.19 kcal/mol.

ATTTGCACGTGCGTCG: the “relative binding free energy” value is -0.14 kcal/mol.

For the sequence AGATACACGTGTGAGG, the “relative binding free energy” value is -0.05 kcal/mol.

Take GGCGACACGTGGATTG: the “relative binding free energy” value was found to be 0.18 kcal/mol.

Take AAGGACACGTGAGTTG: the “relative binding free energy” value was 0.25 kcal/mol.

TGGTCCACGTGGGACG: the “relative binding free energy” value stood at 0.06 kcal/mol.

Take TAGGTCACGTGAAGGG: the “relative binding free energy” value came out at 0.32 kcal/mol.

In the case of ATAGGCACGTGTTTCG, the “relative binding free energy” value was -0.13 kcal/mol.

On to GCGAGCACGTGAAGGG, for which the “relative binding free energy” value turned out to be 0.23 kcal/mol.

Turning to AATGGCACGTGCAGGG, the “relative binding free energy” value is -0.17 kcal/mol.

Consider GATGTCACGTGTTTTG, for which the “relative binding free energy” value turned out to be 0.24 kcal/mol.

On to GTACGCACGTGGGGGA, for which the “relative binding free energy” value is -0.19 kcal/mol.

Consider CATTCCACGTGGTGGT, for which the “relative binding free energy” value is -0.05 kcal/mol.

With AGTATCACGTGGCTCG, the “relative binding free energy” value turned out to be 0.15 kcal/mol.

In the case of AGTGACACGTGTGTCG, the “relative binding free energy” value is -0.03 kcal/mol.

As for GCAATCACGTGTGTTG, the “relative binding free energy” value amounted to 0.16 kcal/mol.

In the case of GTGAGCACGTGTGCGA, the “relative binding free energy” value is -0.15 kcal/mol.

With ATGGCCACGTGTTAGT, the “relative binding free energy” value was -0.15 kcal/mol.

Turning to TATAGCACGTGATGTA, the “relative binding free energy” value is -0.05 kcal/mol.

In the case of TCATTCACGTGGGGTT, the “relative binding free energy” value amounted to 0.01 kcal/mol.

In the case of TTATCCACGTGGTTCT, the “relative binding free energy” value came out at 0.06 kcal/mol.

On to AGTGTCACGTGATTCG, for which the “relative binding free energy” value was determined as 0.12 kcal/mol.

GTACACACGTGGTTAG: the “relative binding free energy” value is 0.03 kcal/mol.

On to AAGAACACGTGGTTGT, for which the “relative binding free energy” value is -0.02 kcal/mol.

With GTTGACACGTGTCGGA, the “relative binding free energy” value is 0.04 kcal/mol.

As to CATGACACGTGAGGTG, the “relative binding free energy” value amounted to 0.33 kcal/mol.

For the sequence AGGGTCACGTGGCGCA, the “relative binding free energy” value was 0.03 kcal/mol.

AGTTTCACGTGCAATG: the “relative binding free energy” value worked out at 0.23 kcal/mol.

As to ACTTGCACGTGAATGG, the “relative binding free energy” value worked out at 0.18 kcal/mol.

AGTAGCACGTGTGCTT: the “relative binding free energy” value is -0.09 kcal/mol.

In the case of TGATGCACGTGACTGG, the “relative binding free energy” value is 0.03 kcal/mol.

Regarding TAATTCACGTGTCGTT, the “relative binding free energy” value was 0.34 kcal/mol.

With CTTTTCACGTGGGTGC, the “relative binding free energy” value stood at 0.11 kcal/mol.

Consider GGGATCACGTGGGAAG, for which the “relative binding free energy” value was found to be 0.18 kcal/mol.

TGGGTCACGTGCATGG: the “relative binding free energy” value was determined as 0.02 kcal/mol.

On to GGGTGCACGTGGACAG, for which the “relative binding free energy” value was -0.13 kcal/mol.

As for GTAGGCACGTGCAGGC, the “relative binding free energy” value is -0.01 kcal/mol.

As to GCTAGCACGTGGTGGT, the “relative binding free energy” value is -0.03 kcal/mol.

Regarding TGGTTCACGTGGGTGA, the “relative binding free energy” value was 0.14 kcal/mol.

Regarding GGCTTCACGTGGAGTG, the “relative binding free energy” value was determined as 0.15 kcal/mol.

Turning to TGATTCACGTGGGACA, the “relative binding free energy” value was determined as 0.24 kcal/mol.

As for AGTTACACGTGCGAGG, the “relative binding free energy” value was determined as 0.03 kcal/mol.

Take CTTAACACGTGAGGTG: the “relative binding free energy” value was determined as 0.09 kcal/mol.

As for CAGGGCACGTGGGCAG, the “relative binding free energy” value was -0.19 kcal/mol.

Consider AAGGGCACGTGTACAT, for which the “relative binding free energy” value is -0.06 kcal/mol.

Take CGGGACACGTGTTCTG: the “relative binding free energy” value is 0.11 kcal/mol.

On to TTTTTCACGTGGAGGA, for which the “relative binding free energy” value is 0.31 kcal/mol.

With TTTTGCACGTGTCTAT, the “relative binding free energy” value was -0.1 kcal/mol.

Consider TGATGCACGTGGCGAT, for which the “relative binding free energy” value was -0.16 kcal/mol.

On to TAATGCACGTGAGGCA, for which the “relative binding free energy” value was 0.34 kcal/mol.

With ATGTGCACGTGAGTAT, the “relative binding free energy” value came out at 0.22 kcal/mol.

Take ATAAGCACGTGTCTTG: the “relative binding free energy” value was determined as 0.03 kcal/mol.

For the origin of these results see the BET-seq Pho4 binding data (Le et al. 2018).
